Each structure is given as a SMILES string. Over roughly 110,000 compounds, “z-score” has its median near -0.1; the highest 2% begin near 2. The list shows a part of the results. Activity calls are given as the source filed them.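 The calls were made as follows: active = z-score in the third read window above 3 or below -3; inactive = the rest.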 Residues, ends and D or L forms follow the SMILES beside them. *: point of attachment. Cbz = O=C(OCc1ccccc1)*; OtBu = CC(C)(C)O*; tBu = CC(C)(C)*

This test addresses Metabotropic glutamate receptor 8 (Rattus norvegicus) (UniProt P70579). Description: rat mGluR8 modulators via GIRK flux, primary screen, cell-based, thallium flux, HTS (AID 488969). The settings on record: HEK293 rat mGluR8, GIRK (G protein-gated inwardly rectifying potassium channel) thallium flux, FluoZin2; at 10 µM; stronger effect = higher value; submaximal glutamate (EC20) added with thallium.
UniProt P70579, sequence (P70579 whole entry, looked up): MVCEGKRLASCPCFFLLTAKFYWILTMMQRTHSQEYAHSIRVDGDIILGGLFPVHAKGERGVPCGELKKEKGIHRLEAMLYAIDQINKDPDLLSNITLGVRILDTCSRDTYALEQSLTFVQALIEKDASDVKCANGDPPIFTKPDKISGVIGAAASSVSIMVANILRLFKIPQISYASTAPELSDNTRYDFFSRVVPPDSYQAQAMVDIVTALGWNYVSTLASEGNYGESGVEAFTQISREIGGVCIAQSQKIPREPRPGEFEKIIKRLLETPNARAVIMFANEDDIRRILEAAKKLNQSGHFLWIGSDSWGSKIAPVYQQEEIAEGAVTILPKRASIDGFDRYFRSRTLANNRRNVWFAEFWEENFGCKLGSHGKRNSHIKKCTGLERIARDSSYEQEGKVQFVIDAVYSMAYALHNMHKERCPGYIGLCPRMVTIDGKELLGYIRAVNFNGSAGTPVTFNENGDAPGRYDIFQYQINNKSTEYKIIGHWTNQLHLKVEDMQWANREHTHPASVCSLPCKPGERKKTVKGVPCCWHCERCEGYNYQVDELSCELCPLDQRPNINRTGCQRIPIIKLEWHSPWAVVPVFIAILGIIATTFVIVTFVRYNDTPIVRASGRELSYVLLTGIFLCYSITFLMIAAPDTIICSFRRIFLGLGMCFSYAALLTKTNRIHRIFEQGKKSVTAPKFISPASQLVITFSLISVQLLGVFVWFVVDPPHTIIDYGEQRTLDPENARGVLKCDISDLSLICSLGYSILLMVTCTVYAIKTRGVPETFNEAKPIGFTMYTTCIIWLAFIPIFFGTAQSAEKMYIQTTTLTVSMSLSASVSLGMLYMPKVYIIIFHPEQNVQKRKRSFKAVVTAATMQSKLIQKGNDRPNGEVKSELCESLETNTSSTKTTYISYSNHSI
Consider `O=C(COC(=O)C1(c2ccc(F)cc2)CCCC1)NCc1ccc2c(c1)OCO2`, for which the z-score is 0.123.

`COc1ccc(-c2cccc(C(=O)Nc3cccc(C(=O)O)c3)c2)cc1` displayed a z-score of -1.09.

The compound `O=C(CSCc1ccccc1)N1CCN(c2ccccc2)CC1` had a z-score of -0.141.

In turn, `Cn1nnnc1-c1cc(Br)ccc1NC(=O)c1ccccc1` yielded a z-score of 0.308.

`CC1CC(C)CN(c2ncnc3c2cnn3Cc2ccc(Cl)cc2)C1` (configuration not stated) displayed a z-score of -0.714.

`CC(C)NC(=S)N/N=C/c1ccc(N2CCOCC2)cc1`: the z-score worked out at 0.522.

In turn, `COc1ccc(NC(=O)c2cnn3c(C(F)(F)F)cc(-c4ccco4)nc23)cc1OC` came in with a z-score of 0.686.

Compound `O=C(Oc1cccc(N2C(=O)CCC2=O)c1)c1ccccc1` displayed a z-score of -0.0865.

As to `Cc1nc(C)c(C(=O)Nc2ccc(Oc3ccccc3)cc2)o1`, the z-score is active: 6.45.

The compound `O=C1C=CC2C(c3ccc4c(c3)OCO4)CC1N2Cc1ccccc1` (configuration not stated) displayed a z-score of -0.17.

`O=C(O/N=C\c1ccc(N2CCCCC2)c([N+](=O)[O-])c1)c1cccc(C(F)(F)F)c1` came in with a z-score of 0.31.

For `CCOC(=O)C(C(=O)OCC)C1CCS(=O)(=O)C1` (configuration not stated), the z-score stood at 0.345.

Regarding `Cc1nc(C)c(C(=O)NCc2ccccc2Cl)o1`, the z-score was determined as 0.415.

`Cc1cccc(NC(=O)CCNC(=O)c2ccco2)c1` gave a z-score of -0.152.

Compound `COc1cc(CNCCN2CCOCC2)ccc1OCc1ccc(Cl)cc1` had a z-score of 0.833.

As to `CC1=C(C(=O)NCc2ccccn2)C2(CCC(C)CC2)OC1=O` (configuration not stated), the z-score is -0.172.

`CCOC(=O)c1csc(NC(=O)C(C)(C)C)n1` registered a z-score of 0.0406.

Consider `CC(C)C1CC(=O)NC(SCC(=O)Nc2ccc(Br)cc2)=C1C#N` (configuration not stated), for which the z-score was -0.802.

`O=C(O)C1C2CCC(O2)C1C(=O)Nc1cccc(F)c1` (configuration not stated) registered a z-score of -0.0685.

Turning to `COC(=O)[C@H](CC(C)C)NC(=O)NC1CCCc2ccccc21` (some centres not stated), the z-score was -1.09.

As for `CCC(C(=O)OCC(=O)Nc1ccc(SC(F)F)cc1)c1ccccc1` (configuration not stated), the z-score turned out to be 1.28.

Consider `CCOC(=O)C1CCCN(C(=O)c2ccc(CS(=O)(=O)c3ccc(C)cc3)o2)C1` (configuration not stated), for which the z-score was 0.0134.

With `COCCCNC(=O)/C=C/c1ccc(Cl)cc1Cl`, the z-score was -0.0538.

With `CCOC(=O)c1c(-c2ccccc2)csc1NC(=O)CCN1CCOCC1`, the z-score is -0.0435.

`O=C(CN1CCOCC1)Nc1ccc(Oc2ccc(NC(=O)CN3CCOCC3)cc2)cc1` showed a z-score of -0.278.

As for `C=C(C)C(=O)OCCCCCCOc1ccc(C(=O)O)cc1`, the z-score stood at 0.176.

As for `COc1ccc(C)cc1NC(=O)CSc1nnc(-c2ccco2)n1Cc1ccco1`, the z-score is -0.626.

As to `CN1CCN(c2ccc(NC(=O)c3cccc(OCc4ccccc4)c3)cc2)CC1`, the z-score is 1.28.

The compound `Clc1ccc(C2=Nn3c(nnc3-c3n[nH]c4c3CCC4)SC2)cc1Cl` registered a z-score of -1.24.

For the compound `COc1ccc2[nH]cc(C=O)c2c1`, the z-score is -0.0109.

Take `Cc1nn(Cc2ccccc2)c(Cl)c1C(=O)NCCc1ccccc1`: the z-score was -0.424.

In turn, `CC(=O)NC1CC2CCC(C1)N2Cc1ccc(C)cc1` (configuration not stated) returned a z-score of -0.137.

Turning to `COc1ccc(Br)cc1-c1noc(-c2ccccc2F)n1`, the z-score was -0.17.

For the compound `Cn1nc(C(F)(F)F)c(/C=N/OC(=O)c2ccc(Cl)cc2)c1Cl`, the z-score was -0.0369.

Compound `CCN(CC)c1nc(C)nc2c1cnn2CCc1ccccc1` yielded a z-score of 1.57.

In turn, `CCOc1ccc2c(c1)c1nnc(SCC(=O)N3CCC(C)CC3)nc1n2C` had a z-score of -1.87.

`CSc1nsc(SCC(=O)NC2CCCCC2)n1` showed a z-score of 1.45.

Turning to `Cc1ccnc(SCc2cc(=O)c(OC(=O)c3ccc(S(=O)(=O)N(C)C)cc3)co2)n1`, the z-score is -0.0077.

For the compound `Cn1c(=O)n(CCOc2ccc(Cl)cc2Cl)c2ccccc21`, the z-score was 0.514.

Regarding `C/C(=N\O)C(=O)NCc1ccncc1`, the z-score was 0.983.

Regarding `Cc1cccc(CSc2cn(CC(=O)N3CCOCC3)c3ccccc23)c1`, the z-score is -0.123.

Turning to `COc1ccc(CN(C(=O)Cc2cccs2)C(C(=O)NC2CCCC2)c2ccncc2)cc1` (configuration not stated), the z-score is -0.254.

Consider `COc1ccccc1Oc1cc(C#N)c(C#N)cc1-n1nnc2ccccc21`, for which the z-score was -0.616.

For `Cc1ccc(CNC(=O)C2CCCN(S(C)(=O)=O)C2)cc1` (configuration not stated), the z-score is 1.11.

`O=S(=O)(/C=C/c1ccccc1)Nc1ccc(N2CCOCC2)cc1` yielded a z-score of 1.67.

`CNC(=O)C1CC(=O)N/C(=N/N=C(\C)c2cccs2)S1` (configuration not stated) came in with a z-score of 0.265.

Regarding `O=C1c2cccc3cccc(c23)C(=O)N1CCN1CCN(C(=S)Nc2ccccc2)CC1`, the z-score is -0.18.

As for `COc1ccc([N+](=O)[O-])cc1C(=O)Nc1ccc(OCC(=O)N2CCOCC2)cc1`, the z-score is -0.156.

With `CCOC(=O)CSc1nc2ccccc2c(=O)n1-c1ccc(C(=O)NCCOC)cc1`, the z-score is 0.0706.

Turning to `CC(C)CCNS(=O)(=O)c1ccc(-c2ccc(S(=O)(=O)NCCC(C)C)cc2)cc1`, the z-score is 0.201.

Compound `CCCNC(=O)c1ccc(Cl)c(Cl)c1` showed a z-score of 0.636.

Take `Cc1ccc(Cl)cc1NC(=O)c1ocnc1C`: the z-score is -0.262.

In the case of `COc1cc(/C=C2/C(=N)N3C=CSC3=NC2=O)ccc1OCCCOc1c(C)cccc1C`, the z-score came out at 0.373.

In turn, `O=C(CSc1nc2ccccc2s1)Nc1ccc(Cl)c(S(=O)(=O)N2CCOCC2)c1` yielded a z-score of -0.0799.

`CCn1c(C)c(C2=CCN(S(=O)(=O)c3ccccc3)CC2)c2ccccc21` came in with a z-score of -0.212.

As to `COC(=O)c1ccc(NC(=O)C(=O)N2CCN(C(=S)Nc3cccc(OC)c3)CC2)cc1`, the z-score was -0.0728.

In turn, `COc1ccc(CN=Cc2c(C(F)(F)F)[nH][nH]c2=O)cc1` showed a z-score of 0.314.

With `CCn1nccc1C(=O)Nc1cc(Cl)ccc1Cl`, the z-score is -0.301.

`O=C(NC(=S)Nc1ccc(Oc2ccc(Cl)cc2)cc1)c1ccccc1`: the z-score is active: 3.94.

For the compound `COc1ccc(S(=O)(=O)N2CCC(C(=O)N3CCCC3)CC2)cc1Cl`, the z-score was -0.183.

`Cc1cc(C(=O)COC(=O)c2ccc[nH]c2=O)c(C)n1C` had a z-score of -0.169.

`O=C(Cc1sc(Nc2ccccc2)nc1-c1ccccc1)NCc1ccccc1` had a z-score of -0.316.

`COc1ccc(-c2cc(C(F)(F)F)nc(SCC(=O)N(C)Cc3cn(C)nc3C)n2)cc1OC`: the z-score is -0.105.

On to `COc1ccc(N2Cc3cccc(C(=O)O)c3C2=O)cc1`, for which the z-score was -0.66.

`COc1cccc(CNC(=O)C2CCN(S(=O)(=O)c3cccs3)CC2)c1` came in with a z-score of -0.134.

For `COC(=O)Oc1c(Br)c(=O)oc2ccccc12`, the z-score was -2.23.

With `c1ccc(-c2noc(CSc3nc4ccccc4o3)n2)cc1`, the z-score was 1.35.

`CCn1c(=O)n(CC)c2cc(S(=O)(=O)Nc3cc(C)cc(C)c3C#N)ccc21` came in with a z-score of 0.21.

The compound `CCOC(=O)C1=C(C)NC2=C(C(=O)C(C(=O)OCC)C(c3ccc(OC)cc3)C2)C1c1ccccn1` (configuration not stated) showed a z-score of -2.09.

Take `Cc1ccc(-n2[nH]c(C)c(/C=N/c3ccccn3)c2=O)cc1`: the z-score is active: 6.24.

With `CC(C)OC(=O)CSc1nnc(SCc2cccc3ccccc23)s1`, the z-score is -0.157.

In turn, `CC(=O)c1ccc(NC(=O)c2ccc(S(=O)(=O)c3ccccc3)cc2)cc1` came in with a z-score of -0.201.

`O=C(Cc1c[nH]c2ccccc12)NCc1cccs1` had a z-score of -0.252.

Compound `O=C(Nc1ccc2nc(SCc3ccc(Cl)cc3)sc2c1)c1ccccc1C(=O)N1CCOCC1` came in with a z-score of -0.161.

In turn, `COc1ccc(O)c(C(=O)c2cc(C#N)c(=O)n(CC3CCCO3)c2)c1` (configuration not stated) yielded a z-score of -0.658.

For the compound `COc1ccc(C2C(C(N)=O)=C(C)Nc3nc(-c4ccccc4OC)nn32)cc1OC` (configuration not stated), the z-score stood at 0.317.

For `O=P(Cc1ccncc1)(c1ccccc1)c1ccccc1`, the z-score is -0.282.

As for `COc1ccc(/C=C/C(=O)c2c(O)ccc3c(C)cc(=O)oc23)cc1`, the z-score was -0.404.

`CCCC(=O)NC(=S)Nc1ccccc1C(=O)OC` yielded a z-score of 0.0764.

`COc1ccc(/C=C2/C(=O)N(c3nc4ccccc4s3)N=C2CSc2ccc(Cl)cc2)cc1` displayed a z-score of -0.344.

On to `COC(=O)c1c(-c2ccc(C)cc2)csc1NC(=O)Cc1ccc(OC)c(OC)c1`, for which the z-score is -0.181.

On to `COC(=O)c1ccccc1NC(=O)c1ccccc1N(C)S(C)(=O)=O`, for which the z-score was -0.424.

`O=C(c1ccccc1)N(Cc1ccccc1)c1ccccn1` yielded a z-score of -0.18.

For `CC(NC(=O)OCc1ccccc1)C(=O)NCC(=O)NC(Cc1ccc(OC(C)(C)C)cc1)C(=O)OC(C)(C)C` (stereo not drawn) (Cbz-Ala-Gly-Tyr(tBu)-OtBu; configuration not given here), the z-score is -0.354.

Compound `Cc1sc2nc(CN(C(=O)NC3CCCCC3)C3CCCCC3)[nH]c(=O)c2c1C` gave a z-score of 0.362.

Consider `Cc1cc(C(=O)N2CCC(C(F)(F)F)n3nccc32)on1` (configuration not stated), for which the z-score is -0.55.

`O=c1c2c3c(sc2nc2n1CCC2)CCC3` gave a z-score of -0.141.

In turn, `CC(C)(C)NC(=O)c1ccc(Sc2ccccc2)c([N+](=O)[O-])c1` yielded a z-score of -1.23.

For `CCS(=O)(=O)N1CCC(NC(=O)c2cc(OC)cc(OC)c2)CC1`, the z-score amounted to 0.357.

With `Cc1nn(C(=O)c2c([N+](=O)[O-])cnn2C)c(C)c1Cl`, the z-score was -0.0558.

Compound `COc1ccc(-n2c(SCC(=O)Nc3nccs3)nc3sc4c(c3c2=O)CCN(C)C4)cc1` returned a z-score of 0.252.

The compound `CCOc1ccccc1N1CCN(C(=O)C2c3ccccc3Oc3ccccc32)CC1` yielded a z-score of 0.121.

`CCOC(=O)C1(CC)NC(c2ccco2)C2C(=O)N(c3ccc(C)cc3)C(=O)C21` (configuration not stated) came in with a z-score of -0.0576.

Turning to `Cc1nnc(SCC(=O)NCc2ccco2)n1-c1ccccc1`, the z-score was -0.0052.

`CCOC(=O)/C(C(C)=O)=C1/OC(=O)c2ccccc21` gave a z-score of -0.285.

Take `CCN(C1CCCCC1)S(=O)(=O)c1ccc(S(=O)(=O)N(CC(=O)Nc2ccccc2)C2CC2)cc1`: the z-score amounted to 0.199.

Compound `CC(=O)NC(=S)Nc1ccc(-c2nc3ccc(C)cc3s2)cc1` registered a z-score of 0.23.

On to `O=C(N/N=C/c1ccc(OC2CSC2)cc1)c1ccccc1`, for which the z-score is -0.257.

`COc1cc(C2Nc3ccc4ncccc4c3C3=C2C(=O)CCC3)cc(OC)c1O` (configuration not stated) gave a z-score of -0.047.

As for `O=C(NCC(c1ccco1)N1CCN(c2ccc(F)cc2)CC1)OCc1ccccc1` (configuration not stated), the z-score is -0.507.

The compound `COc1ccc(N2CCN(C(=O)CSc3nnc(CNc4ccccc4)o3)CC2)cc1` displayed a z-score of 0.686.

As for `CCOC(=O)COc1ccc(CCNC(C)=O)cc1`, the z-score worked out at 0.0219.

With `CCOc1ccccc1NC(=O)CSc1nnc(CNC(=O)c2ccco2)o1`, the z-score was -0.119.

As for `CCOC(=O)c1cc(-c2ccc(/C=C3/C(=O)NC(=O)C(C#N)=C3C)o2)ccc1Cl`, the z-score is -0.148.

`COc1ccc(Cn2c(-c3ccccc3)nc3c(c(=O)c4ccccc4n3C)c2=O)cc1` displayed a z-score of -0.279.

In turn, `O=C(Nc1ccc2c(c1)OCO2)c1ccc(COc2ccc3c(c2)CCC3)o1` had a z-score of -0.205.

On to `Nc1c(C(=O)N2CCOCC2)sc(=S)n1-c1ccccc1`, for which the z-score turned out to be 0.598.

(Values after PubChem BioAssay AID488969 (Vanderbilt High Throughput Screening Facility, 2010).)
